Measurements published in PubChem BioAssay AID488969 (Vanderbilt High Throughput Screening Facility, 2010).
Over roughly 110,000 compounds, “z-score” has its median near -0.1; the highest 2% begin near 2. The list shows a part of the results. Activity calls are given as the source filed them.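 How the source made its calls: active means z-score in the third read window above 3 or below -3; inactive means the rest.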

biological target: Metabotropic glutamate receptor 8 (Rattus norvegicus) (UniProt P70579); test: mGluR8 Gi/Go-coupled signaling modulation – cell-based, rat, thallium flux, HTS, primary screen (AID 488969); details: HEK293 rat mGluR8, GIRK (G protein-gated inwardly rectifying potassium channel) thallium flux, FluoZin2; at 10 µM; stronger effect = higher value; submaximal glutamate (EC20) added with thallium
Chain of UniProt P70579 (P70579 whole entry, looked up): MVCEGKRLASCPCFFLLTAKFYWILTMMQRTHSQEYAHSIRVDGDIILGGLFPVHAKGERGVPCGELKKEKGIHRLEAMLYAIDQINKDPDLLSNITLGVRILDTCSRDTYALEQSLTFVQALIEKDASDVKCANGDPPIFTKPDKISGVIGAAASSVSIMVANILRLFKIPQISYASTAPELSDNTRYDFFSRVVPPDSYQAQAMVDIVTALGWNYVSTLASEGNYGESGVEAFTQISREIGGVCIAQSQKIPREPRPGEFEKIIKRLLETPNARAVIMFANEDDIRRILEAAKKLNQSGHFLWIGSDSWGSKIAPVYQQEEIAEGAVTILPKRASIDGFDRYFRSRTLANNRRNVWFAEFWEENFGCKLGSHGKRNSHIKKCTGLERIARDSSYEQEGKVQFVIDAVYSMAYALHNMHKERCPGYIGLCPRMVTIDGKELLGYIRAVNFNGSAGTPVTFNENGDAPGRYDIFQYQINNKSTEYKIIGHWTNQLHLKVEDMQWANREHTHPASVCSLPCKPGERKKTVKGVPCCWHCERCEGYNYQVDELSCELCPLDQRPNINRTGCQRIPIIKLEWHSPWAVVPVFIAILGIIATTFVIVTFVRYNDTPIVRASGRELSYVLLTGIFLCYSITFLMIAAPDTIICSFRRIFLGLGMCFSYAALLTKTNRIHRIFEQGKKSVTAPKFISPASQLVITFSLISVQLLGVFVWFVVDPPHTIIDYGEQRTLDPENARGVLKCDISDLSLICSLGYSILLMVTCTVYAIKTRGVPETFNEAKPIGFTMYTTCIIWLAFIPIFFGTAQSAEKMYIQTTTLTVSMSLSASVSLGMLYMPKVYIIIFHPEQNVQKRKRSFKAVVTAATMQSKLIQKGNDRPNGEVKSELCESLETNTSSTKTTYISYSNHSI

Going from Cc1ccccc1Nc1nc(N)nc(COC(=O)c2cccc(S(=O)(=O)N(C)C)c2)n1 to CCOC(=O)c1ccccc1NC(=O)c1cccc(F)c1, the z-score rises from -0.0942 to 0.0409.

Going from CCS(=O)(=O)N1CCN(C(=O)COc2ccc(-c3ccccc3)cc2)CC1 to CN1CCN(CCC(=O)Nc2ccc(OCc3ccccc3)cc2)CC1, the z-score rises from -0.0325 to -0.0231.

Compared with CC(=O)Nc1ccc(S(=O)(=O)N2CCSC2c2ccc(Cl)cc2)cc1 (centres undefined), CC(=O)c1ccc(C(=O)Nc2ccc(N3CCOCC3)cc2)cc1 is higher in z-score: 0.38 for the first, 0.613 for the second.

First: CCOC(=O)c1[nH]cnc1C(=O)NC(C)C
Second: CC(C)NC(=O)c1cccc(Br)c1
The z-score of the first is higher: 0.0987 for the first, -0.0557 for the second.

First: c1ccc(-c2nnc3sc(-c4csc5c4CCCC5)nn23)cc1
Second: Oc1ccc(-c2csc(-c3ccccc3)n2)cc1O
The z-score of the first is lower: 0.282 for the first, 0.76 for the second.

Going from COc1cccc(CNC(=O)C2CCCN(S(=O)(=O)c3cccc4nonc34)C2)c1 (centres undefined) to O=C(NCc1ccco1)C1CCCN(S(=O)(=O)Cc2ccccc2)C1 (centres undefined), the z-score falls from 1.17 to -0.533.

Going from COCCOC(=O)C1=C(C)NC(=O)NC1/C=C/c1ccccc1 (centres undefined) to COC(=O)C1=C(C)N=C2SC(C)C(=O)N2C1/C=C/c1ccccc1 (centres undefined), the z-score rises from -0.343 to -0.126.

Going from COc1ccc(Cc2noc(-c3ccc(OC)c(OC)c3)n2)cc1OC to COC(=O)c1ccccc1NC(=O)c1cc(-c2ccc(OC)c(OC)c2)on1, the z-score rises from -0.675 to 0.592.

First: Cc1ccnc(SCc2cc(=O)c(OC(=O)c3cc([N+](=O)[O-])ccc3Cl)co2)n1
Second: COC(=O)c1cccnc1-n1c(=O)c2cccnc2n(Cc2ccc(Cl)cc2)c1=O
The z-score of the first is lower: -0.36 for the first, 1.63 for the second.

Going from CN=C1c2cc3cc(OC)ccc3n2CCN1Cc1ccccc1 to COc1ccc(OC)c(S(=O)(=O)NCCc2ccccc2)c1, the z-score falls from -0.00303 to -0.698.

Going from CCOC(=O)CN(c1cccc(C(C)=O)c1)S(C)(=O)=O to CCn1ncc(C2=NOC(C(=O)Nc3cccc(C(C)=O)c3)C2)c1C (centres undefined), the z-score rises from -0.191 to 0.517.

Going from CCCS(=O)(=O)NCCc1cc2ccc(C)cc2[nH]c1=O to CCOC(=O)c1cc2cc3ccccc3cc2[nH]1, the z-score rises from -0.174 to 0.0164.

First: COc1ccc(CCCC(=O)O)c(C)c1
Second: Cc1cccc(OCCCC(=O)NC(C)c2ccccc2)c1 (centres undefined)
The z-score of the first is higher: 0.887 for the first, -0.0747 for the second.

Compared with Cc1ccccc1OCC(=O)Nc1sc2c(c1C#N)CCC2, Cc1ccccc1NC(=O)COc1nsnc1N1CCOCC1 is lower in z-score: 0.36 for the first, 0.0232 for the second.

Compared with O=C(CCn1c(SCC(=O)c2ccccc2)nc2ccccc2c1=O)NCc1ccc(F)cc1, O=c1c2ccccc2nc(COc2ccccc2)n1/N=C/c1c[nH]c2ccccc12 is lower in z-score: -0.152 for the first, -0.533 for the second.

Compared with COc1ccc(CN2CCCCCC2)c(C)c1C, COc1ccc2c(c1)CCc1c(C(=O)N3CCCCCC3)noc1-2 is lower in z-score: 1.28 for the first, 0.435 for the second.

Compared with O=c1oc2cc(OCc3ccc(F)cc3F)ccc2cc1-c1ccc2ccccc2n1, O=C1c2ccccc2C(=O)C12OC2c1cccc2ccccc12 (centres undefined) is higher in z-score: -0.209 for the first, -0.179 for the second.

Going from CC(C)CNC(=S)N1CCC(NC(=O)C23CC4CC(CC(C4)C2)C3)CC1 to COc1cccc(N2CCN(CC(=O)C34CC5CC(CC(C5)C3)C4)CC2)c1, the z-score rises from -0.322 to 0.0526.

Compared with Cc1cccc(C(=O)Nc2ccccc2SCC(=O)Nc2ccc(C)c(Cl)c2)c1, Cc1ccc(NC(=O)COC(=O)c2cccc3c2C(=O)c2ccccc2C3=O)c(C)c1 is lower in z-score: -0.11 for the first, -0.443 for the second.

Going from C/C(=N\Nc1ncc(Cl)cc1Cl)c1ccc(OC(F)F)cc1 to Fc1ccc(CNC(=S)Nc2ccc(Cl)cc2Cl)cc1, the z-score falls from 0.811 to 0.134.

Compared with O=C(/C=C/c1ccccc1)Nn1c(-c2cccs2)nc2ccccc2c1=O, COc1ccccc1NC(=O)Cn1cnc2c(oc3ccccc32)c1=O is lower in z-score: 0.0595 for the first, -0.641 for the second.

Compared with Cc1[nH]c(-c2ccc3c(c2)OCO3)nc1C(=O)O, O=C1CC(NCc2ccc3c(c2)OCO3)C(=O)N1Cc1ccc2c(c1)OCO2 (centres undefined) is higher in z-score: 0.148 for the first, 1.09 for the second.

Compared with Cc1ccc(NC(=O)C(C)N2C(=O)c3ccccc3C2=O)cc1 (centres undefined), CC(=O)Nc1ccc(-c2nnc(SCc3ccccc3C#N)n2C)cc1 is lower in z-score: 0.881 for the first, 0.0291 for the second.

First: Brc1ccc(C2=Nc3cccc4cccc(c34)N2)o1
Second: O=[N+]([O-])c1ccc(Cl)cc1Sc1cccc2cccnc12
The z-score of the first is lower: -0.424 for the first, -0.0801 for the second.

Going from CCn1c(CNC(=O)Cc2ccc(OC)cc2)nnc1SCC(=O)NC1CCCCC1 to COc1ccc(-c2nnc3ccc(SCC(=O)N4CCCC4)nn23)cc1, the z-score falls from -0.13 to -0.183.

Compared with O=[N+]([O-])c1cccc(/C=N\N2CCN(c3ccc(Cl)cc3)CC2)c1, O=C(O)c1cc([N+](=O)[O-])ccc1N1CCC(Cc2ccccc2)CC1 is higher in z-score: 0.00676 for the first, 0.148 for the second.

First: O=C(Cc1c[nH]c2ccccc12)N1CCc2ccccc21
Second: CCOC(=O)C1=C(N)N(c2ccccc2Oc2ccccc2)C(=O)C1
The z-score of the first is lower: -0.341 for the first, 0.16 for the second.

First: Nn1cnn(Cc2ccccc2)c1=S
Second: Cn1nnnc1SCCNC/C=C/c1ccccc1
The z-score of the first is lower: -0.356 for the first, 0.661 for the second.

First: COc1ccc(CCNc2nnc(Sc3nnnn3-c3ccccc3)s2)cc1OC
Second: Cc1ccc(Cl)cc1NC(=O)c1ccc(CSc2nnnn2C)cc1
The z-score of the first is higher: -0.0199 for the first, -0.0888 for the second.

Going from COC(=O)[C@H](Cc1ccccc1)NC(=O)N1CC(C)OC(C)C1 (some centres undefined) to CC1CN(C(=O)CCn2c(=O)oc3ccccc32)CC(C)O1 (centres undefined), the z-score falls from -0.23 to -0.248.

First: O=C(COC(=O)c1cccc(Br)c1)NCCc1ccc(F)cc1
Second: COC(=O)c1ccccc1NC(=O)Oc1ccc(F)cc1
The z-score of the first is higher: -0.113 for the first, -0.162 for the second.

First: N#Cc1cc2c(=O)n3ccccc3nc2n(Cc2cccnc2)c1=N
Second: Oc1c(C(Nc2cccc(C(F)(F)F)c2)c2cccnc2)ccc2cccnc12 (centres undefined)
The z-score of the first is higher: 0.0145 for the first, -0.0191 for the second.

Compared with COc1ccc2c(c1OC)C(=O)OC2Nc1nc(-c2cc3cc([N+](=O)[O-])ccc3oc2=O)cs1 (centres undefined), Cc1onc(-c2ccccc2Cl)c1C(=O)Nc1nc2ccc(S(C)(=O)=O)cc2s1 is lower in z-score: 0.478 for the first, -0.0827 for the second.

Going from CCc1nc(C)cn1S(=O)(=O)c1cc(C)c(OC)cc1C to Cc1ccc(C(=O)COc2nc(C)cc(C)c2C#N)cc1, the z-score falls from 0.289 to -0.374.

First: O=C(NCc1ccc(Cl)cc1)C1=Cc2cc(Cl)ccc2OC1
Second: Cc1ccc(NC(C)c2cc(Cl)ccc2O)cc1 (centres undefined)
The z-score of the first is lower: -0.178 for the first, 1.51 for the second.

Going from CS(=O)(=O)N(Cc1ccccc1)c1ccc(C(=O)NCCSCc2ccco2)cc1 to COc1ccccc1NC(=O)CN(c1ccccc1F)S(C)(=O)=O, the z-score rises from -0.246 to -0.128.

Compared with CC1=[N+](C)N(c2ccccc2)C(=O)C1N=Cc1ccc(Cl)cc1 (centres undefined), O=C1/C(=C/c2cccs2)Cc2ccccc21 is lower in z-score: 0.872 for the first, -0.366 for the second.

Compared with CCc1ccc(Nc2nnc(SC3CCOC3=O)s2)cc1 (centres undefined), CCSC1=C(C#N)C(c2ccc(F)cc2)CC(=O)N1 (centres undefined) is lower in z-score: -0.427 for the first, -0.55 for the second.

Compared with COC(=O)/C(=C/c1ccc(OC)cc1)NC(=O)c1ccco1, CCOc1ccc(C(=O)Nc2c(C(N)=O)oc3ccccc23)cc1 is lower in z-score: 0.209 for the first, 0.19 for the second.

Compared with CCCCc1nccn1CCn1ccnc1CCCC, Cn1c(SCC(=O)Nc2ccc(NC(=O)c3cccs3)cc2)nnc1-c1ccncc1 is lower in z-score: 0.548 for the first, -0.972 for the second.

Compared with Cc1ccc(NC(=O)C2(NC(=O)c3ccccn3)CCCCC2)cc1Br, O=C(N/N=C/C=C\c1cccc([N+](=O)[O-])c1)c1ccccn1 is higher in z-score: -0.308 for the first, 0.0774 for the second.

Going from COc1cc(C(=O)Sc2ccc(C)cc2)cc(OC)c1OC to COc1cc(C(=O)N(Cc2cccc(Cl)c2)C2CCS(=O)(=O)C2)cc(OC)c1OC (centres undefined), the z-score falls from -0.0868 to -0.352.

First: COCc1[nH][nH]c(=O)c1C=Nc1ccccc1
Second: CN(C)CCNc1oc(/C=C/c2ccccc2)nc1C#N
The z-score of the first is lower: -0.0992 for the first, 0.0165 for the second.

First: CC1CC(C)CN(c2nc3c(c(=O)n(C)c(=O)n3C)n2C)C1 (centres undefined)
Second: CCSc1nc(O)c(CC)c(=O)n1C(C)CC (centres undefined)
The z-score of the first is higher: -0.18 for the first, -0.314 for the second.

First: O=C(Oc1ccc(Br)cc1C(=S)N1CCCC1)c1ccccc1F
Second: COc1ccc(Oc2coc3c(CN4CCOCC4)c(O)ccc3c2=O)cc1
The z-score of the first is higher: 0.691 for the first, -0.0814 for the second.

Going from Cc1ccc(NC(=O)CNc2cccc(C)c2C)c(C)c1 to Cc1cc2c(cc1C)CSC(c1c(O)ccc3ccccc13)SC2, the z-score falls from -0.024 to -0.228.

Going from CCOC(=O)N1CCN(C(=O)CSCc2ccc(C)cc2)CC1 to CC(C)CNC(=O)COC(=O)c1cc(S(=O)(=O)N2CCCCC2)ccc1N1CCOCC1, the z-score rises from 0.222 to 0.557.

First: O=C(CN1C(=O)C2C3C=CC(C3)C2C1=O)Nc1nc2ccccc2[nH]1 (centres undefined)
Second: O=C1Nc2ccccc2N(O)N1c1ccc(S(=O)(=O)N2CCOCC2)cc1
The z-score of the first is lower: 0.113 for the first, 0.342 for the second.

Compared with Cn1cnnc1SCNC(=O)C(F)(F)F, Cc1nc(C)c(CCNC(=O)c2ccc(C(F)(F)F)cc2)s1 is lower in z-score: 0.792 for the first, -0.441 for the second.

Compared with O=C(OC(C(=O)NCc1ccco1)C(OC(=O)c1ccccc1)C(=O)NCc1ccco1)c1ccccc1 (centres undefined), CCNC(=S)NNC(=O)C(c1ccccc1)c1ccccc1 is lower in z-score: 1.26 for the first, -0.324 for the second.

Compared with CCOC(=O)c1sc(=S)n(CC)c1NC(=O)C1CC1, Cc1ccc(C(=O)OC2CCS(=O)(=O)c3sccc32)cc1 (centres undefined) is lower in z-score: 1.75 for the first, -0.0101 for the second.

Going from CCN(CC)CCNC(C(=O)Nc1cc(C(F)(F)F)ccc1Cl)c1ccccc1 (centres undefined) to O=C(NCCCN1CCOCC1)c1ccc(-n2nc(C(F)(F)F)cc2-c2cccs2)cc1, the z-score falls from -0.037 to -0.136.

Going from CC1CC(C)(C)CC2(C1)NC(=S)N(c1ccccc1)N2 (centres undefined) to N#Cc1nc(Cc2cccc3ccccc23)oc1NCC1CCCO1 (centres undefined), the z-score rises from -0.119 to 0.423.

Going from CCOc1cc(C=O)ccc1OCCSc1ccc(C)cc1 to COCCCN1C(=O)C(=O)/C(=C(/O)c2ccc(OC)cc2)C1c1ccc(O)c(OC)c1 (centres undefined), the z-score rises from -0.295 to -0.18.

Compared with CCOc1ccc2[nH]c(=S)[nH]c2c1, Cc1cc(C)cc(OC(C)c2ccnc3nc(/N=C/N(C)C)nn23)c1 (centres undefined) is lower in z-score: 0.0798 for the first, -0.747 for the second.

First: CCN(CC)S(=O)(=O)c1ccc(N2CCOCC2)c(NS(=O)(=O)c2ccc(C)c(C)c2)c1
Second: COC(=O)C(C)(C(=O)OC)c1ccc([N+](=O)[O-])cn1
The z-score of the first is lower: -0.317 for the first, -0.0772 for the second.

With CCOC(=O)c1c(C)[nH]c(=S)c(C#N)c1-c1ccc(Cl)cc1 the z-score was active: 3.4.
Cn1nc(-c2ccc(N3CCOCC3)c(NC(=O)c3ccccc3)c2)c2ccccc2c1=O was tested, and the z-score was active: -5.83.
